PubChem BioAssay AID493131 (Broad Institute, 2011)
Screen size: about 340,000 compounds; about 3,300 (0.97%) were called active. Inconclusive means that the source gave no clear call. Such entries were picked first, then a sample of the others.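 Rule for the calls: active = mean activation above about 17%, with every replicate also reaching it (limit read from the data, passing the limit was not always enough); inconclusive = only one of the two conditions met; inactive = the rest.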

These compounds were tested against Protein FosB (Mus musculus) (UniProt P13346) (assay: enhancers of mouse delta FosB DNA binding – biochemical, fluorescence polarization, TAMRA-CDK5 oligo, single point, primary screen (AID 493131;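 note: fluorescence polarization rise as delta FosB binds a TAMRA Cdk5 AP-1 oligo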)). Conditions: purified delta FosB, at 25 µM, stronger effect = higher value, percent of positive-control signal above neutral wells.
Chain of UniProt P13346 (P13346 whole entry, looked up): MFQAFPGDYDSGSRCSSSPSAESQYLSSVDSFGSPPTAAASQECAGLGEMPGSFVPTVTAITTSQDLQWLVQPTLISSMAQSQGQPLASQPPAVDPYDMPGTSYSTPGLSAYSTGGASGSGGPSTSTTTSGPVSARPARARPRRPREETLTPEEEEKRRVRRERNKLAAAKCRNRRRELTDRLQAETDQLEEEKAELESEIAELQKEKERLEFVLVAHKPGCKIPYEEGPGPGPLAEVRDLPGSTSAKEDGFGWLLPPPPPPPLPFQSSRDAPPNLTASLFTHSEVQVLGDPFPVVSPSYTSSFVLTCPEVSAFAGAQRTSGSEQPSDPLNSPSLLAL

| SMILES | activation |
| --- | --- |
| CCOCCCNc1nc2c(C)cccn2c(=O)c1/C=C1\SC(=S)N(C(C)CC)C1=O (stereo not drawn) | inconclusive: 20.3% |
| CCOC(=O)c1cnc(SCC(=O)Nc2sc(C)c(C)c2C#N)nc1N | active: 45% |
| O=C1Nc2ccccc2/C1=C/c1cnc(-c2ccccc2)[nH]1 | inconclusive: 19% |
| CCOC(=O)C1=C(COC(=O)/C=C/c2ccc(OCC)c(OC)c2)NC(=O)NC1C (stereo not drawn) | inactive: -10.1% |
| Cc1ccc(-n2nnnc2SCC(=O)NC(=O)Nc2ccc3c(c2)OCCO3)cc1 | inconclusive: 20.3% |
| O=C(Nc1ccc(NC(=O)c2ccco2)cc1)c1ccc2c(c1)OCCO2 | inconclusive: 25.1% |
| Cc1cc(NC(=O)CSc2nc3c(cc2C#N)CCCCC3)no1 | inconclusive: 20.9% |
| CC(=O)c1ccc(NC(=O)c2ccc(COc3ccccc3[N+](=O)[O-])o2)cc1 | active: 26.6% |
| Cc1cc(N/N=C/c2ccc(Cl)cc2Cl)nc(NCc2ccccc2)n1 | inconclusive: 16.8% |
| NS(=O)(=O)c1ccc(NC(=O)COC(=O)c2c3c(nc4ccccc24)/C(=C\c2ccc4c(c2)OCO4)CCC3)cc1 | inconclusive: 19.3% |
| CC(C)c1ccc(C2CC(c3ccc(Br)cc3)=NN2C(N)=S)cc1 (stereo not drawn) | inconclusive: 30.9% |
| Cc1ccc(Cn2cc(/C=N/NC(=O)Cc3nnc(NC(=O)c4ccc(C)cc4)s3)c3ccccc32)cc1 | inconclusive: 63.9% |
| CCc1cccc(OCC2Cn3c(nc4c3c(=O)n(C)c(=O)n4C)O2)c1 (stereo not drawn) | inactive: -6.9% |
| COc1cc(C2NCC(c3ccc(Cl)cc3Cl)c3c2[nH]c2ccccc32)cc(OC)c1OC (stereo not drawn) | inconclusive: 30.6% |
| COC(=O)c1c(NC(=O)CCCC(=O)O)sc(C)c1C | inactive: -1.3% |
| Cc1ccccc1C(=O)Nc1scc(-c2ccc(Br)cc2)c1C(=O)O | inactive: -12.9% |
| O=C(COc1ccc(Br)cc1F)Nc1nnc(C2CC2)s1 | inconclusive: 17.4% |
| O=c1c2ccccc2nc2n1C(CSc1ccc(Br)cc1)CN2 (stereo not drawn) | inactive: -4.98% |
| COc1ccc(C2=Nc3ccc(Br)cc3C(c3ccccc3)N2CC(=O)NN)cc1 (stereo not drawn) | inconclusive: 18.1% |
| NS(=O)(=O)c1cccc(NC(=O)CSc2nn(-c3ccccc3)c(=S)s2)c1 | inactive: -9.84% |
| C=CCNC(=O)C1CC(=O)N(c2ccc(OCC(=O)Nc3ccc(C)cc3)cc2)C1 (stereo not drawn) | inconclusive: 19.9% |

| SMILES | activation |
| --- | --- |
| COc1ccc(-n2c(C)cc(-c3csc(N)n3)c2C)cc1 | active: 25% |
| O=C(N/N=C/c1cccnc1)c1ccc(NC(=O)C(c2ccccc2)c2ccccc2)cc1 | inconclusive: 28.3% |
| COc1ccccc1/C=C/C(=O)N1CCc2cc(OC)c(OC)cc2C1C (stereo not drawn) | inconclusive: 17.4% |
| COc1ccc(-n2nc3c(N4CCC(C(=O)NCc5cccc(C)c5)CC4)nnc(C)c3c2C)cc1 | inconclusive: 16.8% |
| CS(=O)(=O)c1ccc2nc(NC(=O)c3ccc(NS(=O)(=O)c4cccc([N+](=O)[O-])c4)cc3)sc2c1 | inconclusive: 19.1% |
| CCCCOc1ccc(C(=O)N2CCN(c3ccc(N4CCOCC4)nn3)CC2)cc1 | inactive: -15.7% |
| CC(C)CN(C(=O)COC(=O)CCC(=O)c1ccc(Cl)cc1)c1c(N)n(Cc2ccccc2)c(=O)[nH]c1=O | inactive: 7.54% |
| N#C/C(=C/c1ccc(CNC(=O)C(=O)Nc2cc(Cl)cc(Cl)c2)o1)C(=O)NCc1cccnc1 | active: 52.5% |
| CC1CN(S(=O)(=O)c2ccc(C(=O)Nc3nc(-c4cc5ccccc5o4)cs3)cc2)CC(C)O1 (stereo not drawn) | inconclusive: 18.2% |
| COc1cc(-c2nc3n(n2)C(c2cccc(OC)c2OC)C2=C(CCCC2=O)N3)cc(OC)c1OC (stereo not drawn) | inconclusive: 18% |
| O=C(COc1cc(Cl)ccc1Cl)Nc1ccc2[nH]c(=O)[nH]c2c1 | inconclusive: 24.4% |
| O=C(Nc1ccc(NS(=O)(=O)c2ccccc2)cc1)c1ccccc1 | inconclusive: 21.2% |
| CCCN(CC1CCCO1)C(=O)c1cc(COc2ccc(F)cc2F)on1 (stereo not drawn) | inactive: -5.75% |
| O=C(CCCNS(=O)(=O)c1cccs1)N1CCN(c2ccc(F)cc2)CC1 | inactive: 3.23% |
| Cc1ccc(-n2nc3c(=O)n(CC(=O)NCc4ccccc4)nc(C)c3c2C)cc1 | active: 20.8% |
| O=C(CCn1c(=S)[nH]c2cc3c(cc2c1=O)OCO3)NCc1ccc(Cl)cc1 | inconclusive: 17.3% |
| CC(NC(=O)COC(=O)c1cc2ccccc2cc1O)c1ccccc1 (stereo not drawn) | active: 24% |
| COc1cc(C(=O)NC2CCCc3ccccc32)ccc1OCC(=O)Nc1ccc(F)cc1 (stereo not drawn) | inconclusive: 17.2% |
| COC(=O)c1ccc(NC(=O)CNC(=O)c2sc3ccccc3c2Cl)cc1 | active: 53.5% |
| COc1cccc(N2CCN(CC(=O)Nc3ccccc3C(=O)NCCc3ccccc3)CC2)c1 | inconclusive: 20.6% |
| Oc1ccccc1/C=N/Nc1ccnc(SCc2ccccc2)n1 | inconclusive: 19.5% |

| SMILES | activation |
| --- | --- |
| NS(=O)(=O)c1ccc(CCNC(=O)C2(S(=O)(=O)c3ccc(Cl)cc3)CC2)cc1 | inconclusive: 19.5% |
| CN(C)CCN(C(=O)c1ccc(S(=O)(=O)N(C)c2ccccc2)cc1)c1nc2cc3c(cc2s1)OCCO3 | active: 47.4% |
| O=C(Nc1ccc2c(c1)OCO2)c1cc(-c2ccc(O)cc2)on1 | inconclusive: 25.3% |
| COc1ccc(C(=O)Nc2nc(-c3ccccc3)c(C(C)=O)s2)c(OC)c1 | active: 31.9% |
| OCCN1CCN(CC/C=C2/c3ccccc3Sc3ccc(C(F)(F)F)cc32)CC1 | inconclusive: 22.8% |
| COc1ccc(COc2cc(-c3cccc(OC)c3)nc3ccc(NC(=O)c4ccc(Cl)cc4)cc23)cc1 | inconclusive: 17% |
| COc1cccc(/C=C2\SC(=S)N(CCC(=O)Nc3ccc(O)cc3)C2=O)c1 | inconclusive: 26.8% |
| Cc1oc(-c2ccc(Cl)cc2)cc1C(=O)/C(C#N)=C/Nc1ccccc1 | inconclusive: 20.3% |
| CN1/C(=C\P(=O)(N(C)C)N(C)C)C(C)(C)c2ccccc21 | inconclusive: 19.3% |
| CCN(CC)CCN(C(=O)CCS(=O)(=O)c1ccccc1)c1nc2c(C)cc(C)cc2s1 | active: 56.4% |
| O=C(Nc1cccc(O)c1)c1ccc(Br)cc1 | inactive: -4.9% |
| O=C(Cn1nc(-c2ccc(Cl)cc2)ccc1=O)NCC1COCCO1 (stereo not drawn) | inactive: 2.44% |
| CCc1nnc(NC(=O)CSc2nc3cc4c(cc3cc2C)OCCO4)s1 | inconclusive: 23.1% |
| COC(=O)c1ccc(C23CC4(C2)[C@H](CN(CC2CCCCC2)[C@@H]4c2ccccc2)C3c2ccccc2)cc1 (stereo partly drawn) | inconclusive: 19.7% |
| Cc1ccsc1C(=O)OCC(=O)N1CC(=O)Nc2ccccc21 | inconclusive: 17.7% |
| O=C(Nc1ccc(NC(=S)NC(=O)c2ccco2)cc1)c1ccccc1 | inconclusive: 19.5% |
| CCOc1cccc(N(C(=O)C2COc3ccccc3O2)C(C(=O)NC2CCCCC2)c2ccc(O)cc2)c1 (stereo not drawn) | inconclusive: 19.6% |
| O=C(Nc1ccc(F)cc1)C(Sc1nc2ccccc2[nH]1)c1ccccc1 (stereo not drawn) | inconclusive: 17.8% |
| O=C1C[C@@H]2c3c(cccc3CN1Cc1ccccc1Br)C[C@@H](O)[C@H]2O | inconclusive: 16.8% |
| CN(C)CCCN(C(=O)c1ccc(Cl)s1)c1nc2cc3c(cc2s1)OCO3 | active: 18% |
| Nc1cccc(C2=Nc3cccc4cccc(c34)N2)c1 | inconclusive: 28.5% |

| SMILES | activation |
| --- | --- |
| O=C(Nc1ccccc1)c1ccc(S(=O)(=O)Nc2cccc(O)c2)cc1 | inactive: 4.08% |
| CC(C)C(=O)NNC(=O)CSc1nc(C2CCCCC2)nc2ccccc12 | inconclusive: 26.3% |
| Cc1nc2ccccc2n(CC(=O)Nc2cc(Cl)cc(Cl)c2)c1=O | inconclusive: 17.1% |
| O=C(Nc1cc(Cl)ccc1-n1cncn1)c1cn2ccccc2n1 | inconclusive: 27.6% |
| CCN(CC)S(=O)(=O)c1ccc(/C=C/C(=O)OCC(=O)Nc2cccc3ccccc23)cc1 | inconclusive: 16.8% |
| COc1ccc(F)cc1Cn1nc(C(=O)O)c2ccccc2c1=O | inconclusive: 17.3% |
| O=C1[C@H]2[C@@H](c3ccc(Cl)cc3)N3C(=O)N(c4cccc(Br)c4)C(=O)[C@@]3(Cc3ccc(Cl)cc3)[C@H]2C(=O)N1C1CCCCC1 | inconclusive: 22.1% |
| CC1CCN(S(=O)(=O)c2ccc(S(=O)(=O)NCc3ccco3)cc2)CC1 | inconclusive: 20.3% |
| Cc1cc2ccccc2c(=O)n1CC(=O)Nc1ccc2c(c1)OCO2 | inconclusive: 17.5% |
| O=C(NCc1csc2ccc(Cl)cc12)Nc1cccc2ccccc12 | active: 44.4% |
| Cc1cccn2c(=O)c3cc(C(=O)NCc4ccc(F)cc4)c(=N)n(CC4CCCO4)c3nc12 (stereo not drawn) | inactive: -8.83% |
| COc1cccc(NC(=O)Nc2nnc(CC(=O)Nc3ccccc3)s2)c1 | inconclusive: 18% |
| O=C(NC1CCN(S(=O)(=O)c2ccccc2)CC1)c1cccc(F)c1 | inactive: -0.709% |
| Cc1ccc(NC(=O)COc2cccc(-n3cnnn3)c2)cc1[N+](=O)[O-] | inconclusive: 16.6% |
| O=C(CSc1nn(-c2ccccc2)c(=S)s1)NC(=O)NCc1ccco1 | inconclusive: 16.3% |
| COc1ccccc1NC(=O)Cn1nnc(C(=O)NCc2ccc3c(c2)OCO3)c1N | inconclusive: 27.4% |
| Cc1ccc(N2CC(C(=O)Nc3cc(C)on3)CC2=O)c(C)c1 (stereo not drawn) | inconclusive: 70.1% |
| c1ccc(CSc2ncnc3c2cnn3-c2ccccc2)cc1 | inactive: 12.7% |
| O=C(Nc1cccc([N+](=O)[O-])c1)c1ccccc1 | inactive: -6.63% |
| O=C(COc1ccc(F)cc1Cl)N(Cc1nnc(-c2ccccc2Cl)o1)C1CC1 | inactive: -11.4% |
